The experiment relates to NCI-H322M lung. Description: DTP human tumour cell line panel, 48 h.

SMILES strings stand for the structures.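 Step 1: Grow cells in 96-well plates. Step 2: Expose to compound for 48 hours at 5 concentrations. Step 3: Interpolate endpoints linearly; if unreached, use highest concentration. GI50 marks 50% less growth.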

The GI50 is the concentration at which growth is held to half of that of the control. On to `COc1cc(Cc2nccc3cc(OC)c(OC)cc23)c(C(C)=O)cc1OC`, for which the GI50 is 38.5 µM.

These data come from PubChem BioAssay (NCI).
